# The supplement of paper PMC6089552
# The whole screen tested about 3,200 compounds, of which about 300 (9.4%) showed activity. Only a part is listed here, and it is no random draw.
# Test system: A673/TR/shEF
# Assay: cell viability (LOESS-normalised, relative to median of negative controls) (log2 ratio); higher = more viable cells (less compound effect), active = hit call of the paper (over 3 MAD below the median)
# Settings: treatment time: 72 h
# Procedure, shortened: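 A673/TR/shEF Ewing sarcoma cells (1,500 per well, 384-well plates) were grown with or without doxycycline to induce EWS-FLI1 shRNA knockdown, starting 24 h before compounds. Library compounds at two or more concentrations, with DMSO controls, were added for three days. Cell viability was read by CellTiter-Glo luminescence on an Envision reader, then LOESS-corrected per plate, divided by the median of negative controls and log2-transformed. Hits were wells at least three median absolute deviations from the median of all screened wells.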
# [1] = 0.25 µM, library screen: screen1, EWS-FLI1 expression: high (no doxycycline)
# [2] = 0.25 µM, library screen: screen1, EWS-FLI1 expression: low (doxycycline-induced shRNA knockdown)
# [3] = 2.5 µM, library screen: screen1, EWS-FLI1 expression: high (no doxycycline)
# [4] = 2.5 µM, library screen: screen1, EWS-FLI1 expression: low (doxycycline-induced shRNA knockdown)
# [5] = 0.25 µM, library screen: screen2, EWS-FLI1 expression: high (no doxycycline)
# [6] = 0.25 µM, library screen: screen2, EWS-FLI1 expression: low (doxycycline-induced shRNA knockdown)
# [7] = 2.5 µM, library screen: screen2, EWS-FLI1 expression: high (no doxycycline)
# [8] = 2.5 µM, library screen: screen2, EWS-FLI1 expression: low (doxycycline-induced shRNA knockdown)
# [9] = 0.025 µM, library screen: screen2, EWS-FLI1 expression: high (no doxycycline)
# [10] = 0.025 µM, library screen: screen2, EWS-FLI1 expression: low (doxycycline-induced shRNA knockdown)
# [11] = 25 µM, library screen: screen2, EWS-FLI1 expression: high (no doxycycline)
# [12] = 25 µM, library screen: screen2, EWS-FLI1 expression: low (doxycycline-induced shRNA knockdown)
# [13] = 0.103 µM, library screen: screen3, EWS-FLI1 expression: high (no doxycycline)
# [14] = 0.103 µM, library screen: screen3, EWS-FLI1 expression: low (doxycycline-induced shRNA knockdown)
# [15] = 0.308 µM, library screen: screen3, EWS-FLI1 expression: high (no doxycycline)
# [16] = 0.308 µM, library screen: screen3, EWS-FLI1 expression: low (doxycycline-induced shRNA knockdown)
# [17] = 0.926 µM, library screen: screen3, EWS-FLI1 expression: high (no doxycycline)
# [18] = 0.926 µM, library screen: screen3, EWS-FLI1 expression: low (doxycycline-induced shRNA knockdown)
# [19] = 2.8 µM, library screen: screen3, EWS-FLI1 expression: high (no doxycycline)
# [20] = 2.8 µM, library screen: screen3, EWS-FLI1 expression: low (doxycycline-induced shRNA knockdown)
# [21] = 8.3 µM, library screen: screen3, EWS-FLI1 expression: high (no doxycycline)
# [22] = 8.3 µM, library screen: screen3, EWS-FLI1 expression: low (doxycycline-induced shRNA knockdown)
# [23] = 25 µM, library screen: screen3, EWS-FLI1 expression: high (no doxycycline)
# [24] = 25 µM, library screen: screen3, EWS-FLI1 expression: low (doxycycline-induced shRNA knockdown)
smiles,measurement,setting,value
CCN(CC)CCNC(=O)c1cc(Br)c(N)cc1OC,cell viability (log2),[1],inactive: 0.0664
same,cell viability (log2),[2],inactive: 0.126
same,cell viability (log2),[3],inactive: 0.0877
same,cell viability (log2),[4],inactive: 0.0941
OC(CCN1CCCCC1)(c1ccccc1)c1ccccc1,cell viability (log2),[1],inactive: 0.047
same,cell viability (log2),[2],inactive: 0.109
same,cell viability (log2),[3],inactive: 0.0827
same,cell viability (log2),[4],inactive: 0.136
COc1ccc2c(c1)O[C@H]1c3ccc(O)cc3OC[C@@H]21,cell viability (log2),[1],inactive: 0.225
same,cell viability (log2),[2],inactive: 0.129
same,cell viability (log2),[3],inactive: 0.184
same,cell viability (log2),[4],inactive: 0.206
O=c1cc(N2CCOCC2)oc2c(-c3ccccc3)cccc12,cell viability (log2),"0.025 µM, library screen: screen1, EWS-FLI1 expression: high (no doxycycline)",inactive: 0.213
same,cell viability (log2),"0.025 µM, library screen: screen1, EWS-FLI1 expression: low (doxycycline-induced shRNA knockdown)",inactive: 0.0453
same,cell viability (log2),[1],inactive: 0.204
same,cell viability (log2),[2],inactive: 0.0333
same,cell viability (log2),[5],inactive: 0.135
same,cell viability (log2),[6],inactive: 0.11
same,cell viability (log2),[3],active: -0.134
same,cell viability (log2),[4],inactive: 0.0932
same,cell viability (log2),[7],inactive: 0.15
same,cell viability (log2),[8],inactive: 0.0123
same,cell viability (log2),"25 µM, library screen: screen1, EWS-FLI1 expression: high (no doxycycline)",active: -0.489
same,cell viability (log2),"25 µM, library screen: screen1, EWS-FLI1 expression: low (doxycycline-induced shRNA knockdown)",active: -0.462
CCOC(N)=O,cell viability (log2),[9],inactive: 0.095
same,cell viability (log2),[10],inactive: 0.0554
same,cell viability (log2),[1],inactive: 0.0929
same,cell viability (log2),[2],inactive: 0.0358
same,cell viability (log2),[5],inactive: 0.159
same,cell viability (log2),[6],inactive: -0.00215
same,cell viability (log2),[3],inactive: 0.118
same,cell viability (log2),[4],inactive: 0.0386
same,cell viability (log2),[7],inactive: 0.0866
same,cell viability (log2),[8],inactive: 0.0762
same,cell viability (log2),[11],inactive: 0.111
same,cell viability (log2),[12],inactive: 0.0341
CC1Cc2ccccc2N1C(=S)Nc1ccc2nccnc2c1 (stereo unspecified),cell viability (log2),[1],inactive: 0.139
same,cell viability (log2),[2],inactive: 0.113
same,cell viability (log2),[3],inactive: 0.133
same,cell viability (log2),[4],inactive: 0.0139
O=C(O)C1CN(CCCP(=O)(O)O)CCN1 (stereo unspecified),cell viability (log2),[5],inactive: 0.0853
same,cell viability (log2),[6],inactive: 0.0707
same,cell viability (log2),[7],inactive: 0.0988
same,cell viability (log2),[8],inactive: 0.109
O=C(CC(=O)c1ccccc1O)c1ccccc1,cell viability (log2),[1],inactive: -0.0422
same,cell viability (log2),[2],inactive: 0.0785
same,cell viability (log2),[3],inactive: 0.114
same,cell viability (log2),[4],inactive: 0.133
CCCCCCCCCCCCCCCC(=O)OC(CC(=O)[O-])C[N+](C)(C)C (stereo unspecified),cell viability (log2),[5],inactive: 0.153
same,cell viability (log2),[6],inactive: 0.133
same,cell viability (log2),[7],inactive: 0.18
same,cell viability (log2),[8],inactive: 0.0929
O=C(O)c1cc(=O)c2ccccc2[nH]1,cell viability (log2),[1],inactive: 0.105
same,cell viability (log2),[2],inactive: 0.028
same,cell viability (log2),[5],inactive: 0.148
same,cell viability (log2),[6],inactive: 0.136
same,cell viability (log2),[3],inactive: 0.159
same,cell viability (log2),[4],inactive: 0.0839
same,cell viability (log2),[7],inactive: 0.0707
same,cell viability (log2),[8],inactive: 0.0598
CC(=O)N=c1sc(S(N)(=O)=O)nn1C,cell viability (log2),[1],inactive: 0.0594
same,cell viability (log2),[2],inactive: 0.0456
same,cell viability (log2),[3],inactive: 0.15
same,cell viability (log2),[4],inactive: 0.092
CC(C)NNC(=O)c1ccncc1,cell viability (log2),[1],inactive: 0.0221
same,cell viability (log2),[2],inactive: 0.0941
same,cell viability (log2),[5],inactive: 0.0555
same,cell viability (log2),[6],inactive: 0.0797
same,cell viability (log2),[3],inactive: 0.132
same,cell viability (log2),[4],inactive: 0.16
same,cell viability (log2),[7],inactive: 0.0722
same,cell viability (log2),[8],inactive: 0.148
CSCCC(NC=O)C(=O)NC(C)C(=O)O (stereo unspecified),cell viability (log2),[1],inactive: 0.11
same,cell viability (log2),[2],inactive: 0.0779
same,cell viability (log2),[3],inactive: 0.177
same,cell viability (log2),[4],inactive: 0.154
NC(N)=NCCCCN=C(N)N,cell viability (log2),[1],inactive: 0.0437
same,cell viability (log2),[2],inactive: 0.0325
same,cell viability (log2),[5],inactive: 0.0915
same,cell viability (log2),[6],inactive: 0.112
same,cell viability (log2),[3],inactive: 0.0862
same,cell viability (log2),[4],inactive: 0.037
same,cell viability (log2),[7],inactive: 0.0239
same,cell viability (log2),[8],inactive: 0.0587
O=C(O)c1ccccc1Nc1cccc(C(F)(F)F)c1,cell viability (log2),[1],inactive: 0.154
same,cell viability (log2),[2],inactive: 0.0501
same,cell viability (log2),[3],inactive: 0.141
same,cell viability (log2),[4],inactive: 0.0483
Clc1ccc(C(c2ccccc2Cl)C(Cl)Cl)cc1 (stereo unspecified),cell viability (log2),[9],inactive: 0.119
same,cell viability (log2),[10],inactive: 0.0601
same,cell viability (log2),[1],inactive: 0.118
same,cell viability (log2),[2],inactive: 0.0601
same,cell viability (log2),[5],inactive: 0.16
same,cell viability (log2),[6],inactive: 0.107
same,cell viability (log2),[3],inactive: 0.121
same,cell viability (log2),[4],inactive: 0.0186
same,cell viability (log2),[7],inactive: 0.0914
same,cell viability (log2),[8],inactive: 0.0523
same,cell viability (log2),[11],inactive: 0.121
same,cell viability (log2),[12],inactive: 0.0697
Cc1cccc(C)c1OCC(=O)N[C@@H](Cc1ccccc1)[C@@H](O)C[C@H](Cc1ccccc1)NC(=O)[C@H](C(C)C)N1CCCNC1=O,cell viability (log2),[13],inactive: 0.00796
same,cell viability (log2),[14],inactive: 0.05
same,cell viability (log2),[15],inactive: -0.0398
same,cell viability (log2),[16],inactive: 0.0179
same,cell viability (log2),[17],inactive: -0.0281
same,cell viability (log2),[18],inactive: -0.00525
same,cell viability (log2),[19],inactive: -0.0155
same,cell viability (log2),[20],inactive: 0.0516
same,cell viability (log2),[21],inactive: 0.0372
same,cell viability (log2),[22],inactive: 0.0544
same,cell viability (log2),[23],inactive: -0.00807
same,cell viability (log2),[24],inactive: 0.0172
CN1[C@@H]2CC[C@@H]1CC(OC(c1ccccc1)c1ccccc1)C2 (stereo partly specified),cell viability (log2),[1],inactive: 0.132
same,cell viability (log2),[2],inactive: 0.107
same,cell viability (log2),[5],inactive: 0.135
same,cell viability (log2),[6],inactive: 0.0858
same,cell viability (log2),[3],inactive: 0.0835
same,cell viability (log2),[4],inactive: 0.0797
same,cell viability (log2),[7],inactive: 0.114
same,cell viability (log2),[8],inactive: 0.0926
C[C@@H]1CC[C@@]2(OC1)O[C@H]1C[C@H]3[C@@H]4CC=C5C[C@@H](O)CC[C@]5(C)[C@H]4CC[C@]3(C)[C@H]1[C@@H]2C,cell viability (log2),[1],inactive: 0.0583
same,cell viability (log2),[2],inactive: 0.0531
same,cell viability (log2),[3],inactive: 0.133
same,cell viability (log2),[4],inactive: 0.13
CCOc1nc2cccc(C(=O)O)c2n1Cc1ccc(-c2ccccc2-c2nn[nH]n2)cc1,cell viability (log2),[1],inactive: 0.102
same,cell viability (log2),[2],inactive: 0.0532
same,cell viability (log2),[3],inactive: 0.153
same,cell viability (log2),[4],inactive: 0.125
NCCCS(=O)(=O)O,cell viability (log2),[1],inactive: 0.0521
same,cell viability (log2),[2],inactive: -0.0178
same,cell viability (log2),[5],inactive: 0.113
same,cell viability (log2),[6],inactive: 0.18
same,cell viability (log2),[3],inactive: 0.192
same,cell viability (log2),[4],inactive: 0.173
same,cell viability (log2),[7],inactive: 0.00997
same,cell viability (log2),[8],inactive: 0.115
CC(C)[C@H](O)C(=O)N[C@@H](C)C(=O)N[C@@H]1C(=O)N(C)CCc2ccccc21,cell viability (log2),[13],inactive: -0.0287
same,cell viability (log2),[14],inactive: 0.04
same,cell viability (log2),[15],inactive: 0.0566
same,cell viability (log2),[16],inactive: 0.0157
same,cell viability (log2),[17],inactive: -0.0525
same,cell viability (log2),[18],inactive: 0.0492
same,cell viability (log2),[19],inactive: -0.112
same,cell viability (log2),[20],inactive: 0.0257
same,cell viability (log2),[21],inactive: -0.0518
same,cell viability (log2),[22],inactive: 0.0808
same,cell viability (log2),[23],inactive: -0.014
same,cell viability (log2),[24],inactive: 0.0386
CC(C)CCC[C@@H](C)[C@H]1CC[C@H]2[C@@H]3CC[C@@H]4C[C@H](O)CC[C@]4(C)[C@H]3CC[C@]12C,cell viability (log2),[1],inactive: 0.108
same,cell viability (log2),[2],inactive: 0.0181
same,cell viability (log2),[3],inactive: 0.105
same,cell viability (log2),[4],inactive: 0.0609
C=CCN1CCc2cc(O)c(O)cc2C(c2ccccc2)C1 (stereo unspecified),cell viability (log2),[5],inactive: 0.186
same,cell viability (log2),[6],inactive: 0.0732
same,cell viability (log2),[7],inactive: 0.221
same,cell viability (log2),[8],inactive: 0.0252
